Source: publication PMC10668032
This is one part of the list. At the low end of the ranking, values are background and their order means little.

target: SIX1-Q177R homeodomain (UniProt Q15475); assay: universal protein binding microarray; conditions: Universal all-10-mer PBM (8x60K, AMADID 030236), 300 nM GST-tagged protein, Alexa Fluor 488 anti-GST; buffer, salt, pH and temperature not stated; high values mean tight binding; most listed sequences are background and not binding sites; double strand, one strand shown

Sequence | binding signal
ACGGCCCT | -0.111 E-score
CCAGCTCA | -0.119 E-score
AGTGTGTC | 0.283 E-score
ACATAAGT | -0.075 E-score
GAGTGTCA | 0.45 E-score
AGTGCAAG | -0.06 E-score
ACACAGGA | 0.192 E-score
TGGTGCAA | 0.169 E-score
CTTTCCAA | -0.104 E-score
GAGGTCAC | -0.0638 E-score
AGACAACT | 0.0848 E-score
AACACGCG | 0.36 E-score
GTGGAACA | 0.0324 E-score
CTGCCCCC | 0.00977 E-score
AAGCAGGG | 0.00513 E-score
GCCCTATA | -0.106 E-score
CTTTTTTC | -0.266 E-score
CGCGGTCC | -0.123 E-score
GTAAATAA | 0.0337 E-score
GTTGTAAA | -0.17 E-score
AGTCGCTA | 0.109 E-score
CCCGCATA | 0.135 E-score
CGGACCGA | -0.0483 E-score
GATGCCCC | -0.0879 E-score
GCCCGCTA | -0.279 E-score

Sequence | binding signal
AACTTACC | -0.0993 E-score
TTAGAGAA | -0.114 E-score
CTCTCTGC | -0.109 E-score
CGGTCGCA | -0.0812 E-score
AGTTGATA | 0.024 E-score
AATCCGTA | -0.146 E-score
GTCTAGAA | -0.133 E-score
ACAGGCGC | -0.13 E-score
TAGGACGA | -0.0699 E-score
CAATGTAC | 0.0953 E-score
AAGTCATA | -0.208 E-score
CATCCATA | -0.111 E-score
GAATAAAC | 0.115 E-score
CGATGTCC | -0.182 E-score
CCCGCGAC | 0.1 E-score
CGAGTCGC | 0.0582 E-score
CGCCTACC | 0.0601 E-score
TCACAGCA | -0.0833 E-score
CTTAGATA | -0.234 E-score
AGGCCGCA | -0.055 E-score
AATAAAAA | -0.0602 E-score
ATTGATTG | -0.0291 E-score
ACTCGACT | 0.131 E-score
GTTATCAA | -0.11 E-score
CTGTAAAG | -0.11 E-score

Sequence | binding signal
AGCGGGTG | 0.333 E-score
CCCATCTA | -0.14 E-score
ACAGCGAC | 0.109 E-score
GGTGAACA | 0.106 E-score
CATGAGGA | -0.111 E-score
CAGCGATA | -0.00628 E-score
ACGGTAAC | 0.108 E-score
CACAGTGG | 0.16 E-score
CATGGAAG | -0.108 E-score
AAGCGGGA | -0.176 E-score
GAAATAGC | -0.203 E-score
AACGAGTT | -0.107 E-score
ATGCTAAG | -0.304 E-score
CGTAGGGC | -0.105 E-score
GGGTCGAA | 0.182 E-score
GTTGCCAA | -0.117 E-score
CCTGATAG | -0.153 E-score
CGCTATAA | -0.279 E-score
CCGCTGCG | -0.166 E-score
GAGTTGAC | -0.0347 E-score
CATTACGA | -0.108 E-score
ATACCGGG | 0.213 E-score
GCCTACGA | -0.0683 E-score
TCGAAGAA | -0.0854 E-score
AGGGGCTA | 0.0301 E-score

Sequence | binding signal
AACCAACG | 0.0488 E-score
ACAGGTTG | -0.108 E-score
AACTGATT | -0.13 E-score
AATACCAG | 0.0976 E-score
CAGGCCAC | -0.197 E-score
CACACTAA | 0.204 E-score
CCAAGCCA | 0.0378 E-score
CAACGCTG | -0.171 E-score
CCATTACG | -0.0272 E-score
CCACGCCA | -0.133 E-score
GAGGCGTA | 0.135 E-score
GGAGGTGA | -0.047 E-score
AATTCCTG | -0.127 E-score
CGGTGGGC | -0.216 E-score
CTCCGTGA | -0.0297 E-score
GATGCAGA | -0.174 E-score
ACGGAAAA | -0.259 E-score
CCGCGTGA | -0.109 E-score
AGCACCAG | 0.247 E-score
AAATGAAG | -0.105 E-score
ACTTTGCT | -0.147 E-score
ATCGGATC | 0.105 E-score
ATCAATTG | -0.136 E-score
ACCACGCA | 0.24 E-score
GCTCCGGA | 0.0233 E-score

Sequence | binding signal
GTGAGGCA | -0.128 E-score
CTGGGAGC | 0.0579 E-score
CGGACTCA | -0.0505 E-score
ACCTGGGA | 0.186 E-score
AGGGAGAC | 0.0532 E-score
CCGTAGGC | -0.224 E-score
AAAGCGGT | -0.0763 E-score
AGGTGTCG | 0.479 E-score
AAAGTGAA | -0.174 E-score
CACTCGAG | 0.172 E-score
AGTTCCAC | -0.159 E-score
CCCTCTGA | 0.153 E-score
CGGGTTGA | 0.0878 E-score
CAGGTTTA | -0.00154 E-score
AGACGGCT | -0.103 E-score
ATTCCCAC | 0.0314 E-score
ACAAGACA | 0.111 E-score
TCCTCCAA | 0.0978 E-score
AACCCCGG | 0.265 E-score
ATGGCGAC | -0.107 E-score
CGTTCCTC | -0.096 E-score
ATCAGGGC | -0.132 E-score
GCACAGGA | 0.0617 E-score
GCTTAGCA | -0.3 E-score
CTACTTCA | -0.0371 E-score

Sequence | binding signal
AGTAGTTA | 0.0062 E-score
ACATGTAG | 0.013 E-score
CAAATCTA | 0.046 E-score
TGAGCGCA | -0.0968 E-score
CAAACTTG | -0.217 E-score
ACTGCTAA | -0.137 E-score
TCAGCCAA | -0.147 E-score
CTTGAGAC | -0.0213 E-score
AACCCCGC | 0.194 E-score
ATAACTGG | -0.142 E-score
CGCCTAAA | 0.0746 E-score
CACGGGGA | 0.199 E-score
CGCACTAG | 0.0426 E-score
TGTGTTAA | 0.171 E-score
TGGAGCAA | -0.141 E-score
CAAAGGAG | -0.181 E-score
ACACCGTG | 0.472 E-score
GAGGAGCA | -0.264 E-score
AGGGCCCC | -0.21 E-score
CCCCCCAC | 0.0982 E-score
GAGCTGCA | -0.28 E-score
ACGCGATG | 0.0393 E-score
TGAGTACA | 0.0496 E-score
CCCGGCCA | 0.124 E-score
TATGTAAA | -0.136 E-score

Sequence | binding signal
AGGCATTC | -0.095 E-score
TGTCAGAA | 0.183 E-score
CATTCCAA | -0.114 E-score
CCCGGAGG | 0.121 E-score
AGGAGCTG | -0.0204 E-score
CATTTACG | 0.0286 E-score
CGGAGACG | 0.138 E-score
CTTACTGC | -0.167 E-score
ACCAGACA | 0.234 E-score
TGTGGAAA | -0.0857 E-score
AAGTACTT | -0.219 E-score
GATGGATA | -0.0006 E-score
GCCAGGTA | -0.0382 E-score
CTCTCCAG | -0.113 E-score
ACGGACCA | -0.155 E-score
ACACTGAA | 0.349 E-score
ATACGGCG | -0.0354 E-score
AGAGCGGG | -0.0404 E-score
TAGAAATA | -0.174 E-score
CGGTATTC | 0.0602 E-score
GGACTGAC | -0.127 E-score
AGAGTGGA | 0.0849 E-score
